From paper PMC9911399, “Two distinct binding modes provide the RNA-binding protein RbFox with extraordinary sequence specificity”
Where a chain is given by its changes, count along the chain named. This is one part of the list.

T1: RBFOX1 RRM (Homo sapiens, UniProt Q9NWB1 109-208)
T1 sequence: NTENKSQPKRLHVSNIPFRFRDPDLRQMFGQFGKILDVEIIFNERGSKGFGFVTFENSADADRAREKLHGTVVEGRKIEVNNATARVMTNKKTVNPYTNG

B1: AUGGUGU (DNA:RNA)
RNA: GGGAGACCGGAAUUCAGAUUGUCCAUGGUGUUUAAAUCCCGUCGUAGCCACCA
DNA 1: CAATCTGAATTCCGGTCTCCC
DNA 2: TGGTGGCTACGACGGGATT
B2: AUGGACA (DNA:RNA)
RNA: B1 RNA with U29A, G30C, U31A
DNA 1: CAATCTGAATTCCGGTCTCCC
DNA 2: TGGTGGCTACGACGGGATT
B3: CUAUGCU (DNA:RNA)
RNA: B1 RNA with A25C, G27A, G28U, U29G, G30C
DNA 1: CAATCTGAATTCCGGTCTCCC
DNA 2: TGGTGGCTACGACGGGATT
B4: CAAGGUU (DNA:RNA)
RNA: B1 RNA with A25C, U26A, G27A, U29G, G30U
DNA 1: CAATCTGAATTCCGGTCTCCC
DNA 2: TGGTGGCTACGACGGGATT
B5: AAUUUGG (DNA:RNA)
RNA: B1 RNA with U26A, G27U, G28U, U31G
DNA 1: CAATCTGAATTCCGGTCTCCC
DNA 2: TGGTGGCTACGACGGGATT
B6: CGUCAAG (DNA:RNA)
RNA: GGGAGACCGGAAUUCAGAUUGUCCCGUCAAGUUAAAUCCCGUCGUAGCCACCA
DNA 1: CAATCTGAATTCCGGTCTCCC
DNA 2: TGGTGGCTACGACGGGATT
B7: ACGCGAC (DNA:RNA)
RNA: B1 RNA with U26C, G28C, U29G, G30A, U31C
DNA 1: CAATCTGAATTCCGGTCTCCC
DNA 2: TGGTGGCTACGACGGGATT
B8: CAGAGCG (DNA:RNA)
RNA: B6 RNA with G26A, U27G, C28A, A29G, A30C
DNA 1: CAATCTGAATTCCGGTCTCCC
DNA 2: TGGTGGCTACGACGGGATT
B9: GUCAGUA (DNA:RNA)
RNA: B1 RNA with A25G, G27C, G28A, U29G, G30U, U31A
DNA 1: CAATCTGAATTCCGGTCTCCC
DNA 2: TGGTGGCTACGACGGGATT
B10: CGUAGCG (DNA:RNA)
RNA: B6 RNA with C28A, A29G, A30C
DNA 1: CAATCTGAATTCCGGTCTCCC
DNA 2: TGGTGGCTACGACGGGATT
B11: ACUAGUG (DNA:RNA)
RNA: B6 RNA with C25A, G26C, C28A, A29G, A30U
DNA 1: CAATCTGAATTCCGGTCTCCC
DNA 2: TGGTGGCTACGACGGGATT
B12: AGACGUU (DNA:RNA)
RNA: B1 RNA with U26G, G27A, G28C, U29G, G30U
DNA 1: CAATCTGAATTCCGGTCTCCC
DNA 2: TGGTGGCTACGACGGGATT
B13: AUAUUGU (DNA:RNA)
RNA: B1 RNA with G27A, G28U
DNA 1: CAATCTGAATTCCGGTCTCCC
DNA 2: TGGTGGCTACGACGGGATT
B14: UCUAUCG (DNA:RNA)
RNA: B6 RNA with C25U, G26C, C28A, A29U, A30C
DNA 1: CAATCTGAATTCCGGTCTCCC
DNA 2: TGGTGGCTACGACGGGATT
B15: UCAAGUC (DNA:RNA)
RNA: GGGAGACCGGAAUUCAGAUUGUCCUCAAGUCUUAAAUCCCGUCGUAGCCACCA
DNA 1: CAATCTGAATTCCGGTCTCCC
DNA 2: TGGTGGCTACGACGGGATT
B16: CUUUCCC (DNA:RNA)
RNA: B6 RNA with G26U, C28U, A29C, A30C, G31C
DNA 1: CAATCTGAATTCCGGTCTCCC
DNA 2: TGGTGGCTACGACGGGATT
B17: AAGAUAA (DNA:RNA)
RNA: B1 RNA with U26A, G28A, G30A, U31A
DNA 1: CAATCTGAATTCCGGTCTCCC
DNA 2: TGGTGGCTACGACGGGATT
B18: UUCAUAC (DNA:RNA)
RNA: B15 RNA with C26U, A27C, G29U, U30A
DNA 1: CAATCTGAATTCCGGTCTCCC
DNA 2: TGGTGGCTACGACGGGATT
B19: CCAGUGA (DNA:RNA)
RNA: B1 RNA with A25C, U26C, G27A, U31A
DNA 1: CAATCTGAATTCCGGTCTCCC
DNA 2: TGGTGGCTACGACGGGATT
B20: CUUUUCU (DNA:RNA)
RNA: B1 RNA with A25C, G27U, G28U, G30C
DNA 1: CAATCTGAATTCCGGTCTCCC
DNA 2: TGGTGGCTACGACGGGATT
B21: CGGGAAA (DNA:RNA)
RNA: B6 RNA with U27G, C28G, G31A
DNA 1: CAATCTGAATTCCGGTCTCCC
DNA 2: TGGTGGCTACGACGGGATT
B22: GUCCAAG (DNA:RNA)
RNA: B6 RNA with C25G, G26U, U27C
DNA 1: CAATCTGAATTCCGGTCTCCC
DNA 2: TGGTGGCTACGACGGGATT
B23: GACGCUU (DNA:RNA)
RNA: B1 RNA with A25G, U26A, G27C, U29C, G30U
DNA 1: CAATCTGAATTCCGGTCTCCC
DNA 2: TGGTGGCTACGACGGGATT
B24: GACGAAG (DNA:RNA)
RNA: B6 RNA with C25G, G26A, U27C, C28G
DNA 1: CAATCTGAATTCCGGTCTCCC
DNA 2: TGGTGGCTACGACGGGATT
B25: AUCCGCA (DNA:RNA)
RNA: B1 RNA with G27C, G28C, U29G, G30C, U31A
DNA 1: CAATCTGAATTCCGGTCTCCC
DNA 2: TGGTGGCTACGACGGGATT
B26: AGAGUAA (DNA:RNA)
RNA: B1 RNA with U26G, G27A, G30A, U31A
DNA 1: CAATCTGAATTCCGGTCTCCC
DNA 2: TGGTGGCTACGACGGGATT
B27: UGGCGCU (DNA:RNA)
RNA: B1 RNA with A25U, U26G, G28C, U29G, G30C
DNA 1: CAATCTGAATTCCGGTCTCCC
DNA 2: TGGTGGCTACGACGGGATT
B28: GUAACGA (DNA:RNA)
RNA: B1 RNA with A25G, G27A, G28A, U29C, U31A
DNA 1: CAATCTGAATTCCGGTCTCCC
DNA 2: TGGTGGCTACGACGGGATT
B29: ACACAGU (DNA:RNA)
RNA: B1 RNA with U26C, G27A, G28C, U29A
DNA 1: CAATCTGAATTCCGGTCTCCC
DNA 2: TGGTGGCTACGACGGGATT
B30: AAAUGAU (DNA:RNA)
RNA: B1 RNA with U26A, G27A, G28U, U29G, G30A
DNA 1: CAATCTGAATTCCGGTCTCCC
DNA 2: TGGTGGCTACGACGGGATT
B31: AUUAAUG (DNA:RNA)
RNA: B6 RNA with C25A, G26U, C28A, A30U
DNA 1: CAATCTGAATTCCGGTCTCCC
DNA 2: TGGTGGCTACGACGGGATT

molecular target: T1, RBFOX1 RRM; assay: EMSA; HiTS-Eq, 1 nM pool, 10 min; buffer printed only for the single-RNA assays: 10 mM Tris pH 7.5, 150 mM NaCl, 3.4 mM EDTA, 0.001% NP-40, 30 C; settings: tags: His6 N-terminal (pET28a); label: 5' 32P
Outline: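 Relative association constants, normalised to the cognate motif, were derived by comparing read counts of each RNA species with those of the control reaction. The RNA sequenced was the free fraction, separated by 8% native PAGE after a 10 min equilibration in 50 µL of 1 nM 5′-radiolabelled RNA (7 randomized nucleotides) with increasing concentrations of purified wild-type or mutant RbFox RRM.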

Row | Binder | binding signal
1 | B1 | 0.0152 KA relative to UGCAUGU
2 | B2 | 0.00566 KA relative to UGCAUGU
3 | B3 | 0.00888 KA relative to UGCAUGU
4 | B4 | 0.00552 KA relative to UGCAUGU
5 | B5 | 0.0081 KA relative to UGCAUGU
6 | B6 | 0.0065 KA relative to UGCAUGU
7 | B7 | 0.00527 KA relative to UGCAUGU
8 | B8 | 0.0122 KA relative to UGCAUGU
9 | B9 | 0.0111 KA relative to UGCAUGU
10 | B10 | 0.0129 KA relative to UGCAUGU
11 | B11 | 0.0109 KA relative to UGCAUGU
12 | B12 | 0.00953 KA relative to UGCAUGU
13 | B13 | 0.00748 KA relative to UGCAUGU
14 | B14 | 0.00758 KA relative to UGCAUGU
15 | B15 | 0.00662 KA relative to UGCAUGU
16 | B16 | 0.00374 KA relative to UGCAUGU

Row | Binder | binding signal
17 | B17 | 0.000269 KA relative to UGCAUGU
18 | B18 | 0.00199 KA relative to UGCAUGU
19 | B19 | 0.00741 KA relative to UGCAUGU
20 | B20 | 0.0114 KA relative to UGCAUGU
21 | B21 | 0.022 KA relative to UGCAUGU
22 | B22 | 0.0109 KA relative to UGCAUGU
23 | B23 | 0.0162 KA relative to UGCAUGU
24 | B24 | 0.0143 KA relative to UGCAUGU
25 | B25 | 0.00554 KA relative to UGCAUGU
26 | B26 | 0.00465 KA relative to UGCAUGU
27 | B27 | 0.0198 KA relative to UGCAUGU
28 | B28 | 0.0122 KA relative to UGCAUGU
29 | B29 | 0.000421 KA relative to UGCAUGU
30 | B30 | 0.00436 KA relative to UGCAUGU
31 | B31 | 0.00405 KA relative to UGCAUGU
